Measurements as given in article PMC4336329 (PLoS ONE, 2015).
Out of some 310,000 compounds screened, about 2,200 (0.71%) showed an effect of 50% or more. Effects have a minus sign here. This is one part of the list.

target: human ether-à-go-go-related gene (hERG) potassium channel (human, UniProt Q12809); test: primary screen, population patch clamp on CHO cells stably expressing hERG
Sequence (Q12809 whole entry, looked up): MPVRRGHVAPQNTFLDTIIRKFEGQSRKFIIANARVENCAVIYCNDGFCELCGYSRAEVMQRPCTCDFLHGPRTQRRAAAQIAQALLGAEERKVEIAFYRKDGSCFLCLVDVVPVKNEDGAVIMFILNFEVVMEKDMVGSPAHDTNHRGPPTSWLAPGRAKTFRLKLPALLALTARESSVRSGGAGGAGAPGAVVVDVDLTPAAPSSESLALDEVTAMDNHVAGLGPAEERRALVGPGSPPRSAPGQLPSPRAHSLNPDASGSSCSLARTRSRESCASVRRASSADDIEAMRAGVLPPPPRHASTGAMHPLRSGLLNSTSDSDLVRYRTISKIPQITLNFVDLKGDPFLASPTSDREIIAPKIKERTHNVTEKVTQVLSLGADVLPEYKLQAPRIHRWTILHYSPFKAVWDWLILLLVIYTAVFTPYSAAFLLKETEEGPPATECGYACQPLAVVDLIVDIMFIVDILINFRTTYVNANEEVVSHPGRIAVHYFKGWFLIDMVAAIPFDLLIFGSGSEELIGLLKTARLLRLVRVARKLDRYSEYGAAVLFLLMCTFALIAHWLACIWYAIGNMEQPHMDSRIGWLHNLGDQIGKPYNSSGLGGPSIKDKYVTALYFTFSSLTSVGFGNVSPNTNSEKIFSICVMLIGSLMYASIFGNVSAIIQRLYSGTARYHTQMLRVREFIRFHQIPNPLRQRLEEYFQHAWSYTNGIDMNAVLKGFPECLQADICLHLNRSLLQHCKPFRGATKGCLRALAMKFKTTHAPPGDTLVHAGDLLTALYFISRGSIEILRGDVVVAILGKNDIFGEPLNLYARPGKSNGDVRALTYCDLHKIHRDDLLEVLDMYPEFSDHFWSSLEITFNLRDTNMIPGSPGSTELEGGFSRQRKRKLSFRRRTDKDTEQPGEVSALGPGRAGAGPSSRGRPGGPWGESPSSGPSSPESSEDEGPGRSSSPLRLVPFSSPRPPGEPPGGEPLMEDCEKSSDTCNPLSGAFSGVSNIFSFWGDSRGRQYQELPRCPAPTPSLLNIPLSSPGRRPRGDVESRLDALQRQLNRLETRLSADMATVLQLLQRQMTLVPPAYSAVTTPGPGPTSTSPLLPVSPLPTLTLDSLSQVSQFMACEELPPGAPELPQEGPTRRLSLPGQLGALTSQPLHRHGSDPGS

| Structure (SMILES) | hERG current change (%, negative = inhibition) at 1uM |
| --- | --- |
| CCn1cc([N+](=O)[O-])c(C(=O)Nc2ccc(Cn3nc(C)cc3C)cc2)n1 | -8.43% |
| CCSC1=C(C#N)C2(CCCC2)C(C#N)=C(N)N1 | -6.47% |
| COc1ccc(C(=O)OCCN2CCOCC2)cc1OC.Cl | 8.9% |
| O=C1ON=C(c2ccc([N+](=O)[O-])cc2)/C1=C/c1ccccc1O | 12.3% |
| CCOC(=O)c1c(NC(=O)c2cccc(N3C(=O)CCC3=O)c2)sc(C)c1C | 5.3% |
| Cc1c(C(=O)N/N=C/c2ccc(O)c(Br)c2)sc(N)c1C#N | 5.36% |
| Cn1cc(Cl)c(C(=O)NC2CCCC2)n1 | 8.17% |
| CC(=O)Nc1ccc(-c2csc(NC(=O)C3CC(=O)N(c4ccc5c(c4)OCCO5)C3)n2)cc1 (stereo not drawn) | 8.25% |
| Cc1ccc(OCCC(=O)OCC(=O)NC2CCS(=O)(=O)C2)cc1 (stereo not drawn) | 11.7% |
| CCC(=O)Nc1ccc(N2CCN(S(C)(=O)=O)CC2)cc1 | 17.9% |
| Cn1ncc2c(NCc3ccccc3)ncnc21 | 3.49% |
| O=c1/c(=C/c2ccccc2)sc2nnc(-c3cccs3)n12 | 9.08% |
| CCN1/C(=C/c2ccc3cccc(C)c3[n+]2CC)Sc2ccccc21.[I-] | -76.4% |
| Cc1c(C(=O)O)cccc1-c1ccc(/C=N/n2cnnc2)o1 | 11.4% |
| CSc1oc(-c2ccccc2)nc1S(=O)(=O)c1ccc(F)cc1 | 2.24% |
| Cc1ccc2[nH]cc(CCNC(=O)C3CCCO3)c2c1 (stereo not drawn) | 14.3% |
| COc1ccc(S(=O)(=O)N2CCOCC2)cc1C(=O)N1CCCCCC1 | 4.83% |
| O=C(c1ccc2c(=O)n(-c3ccccc3)c(=S)[nH]c2c1)N1CCN(c2ccccc2)CC1 | 4.37% |
| O=C(NCCc1ccc(F)cc1)N[C@@H](Cc1ccccc1)C(=O)O | 12.1% |
| CN(Cc1cccc(F)c1)C(=O)CNS(=O)(=O)c1ccc2ccccc2c1 | 10% |
| O=C(CCn1c(=O)oc2ccccc21)Nc1ccc2c(c1)OCCO2 | 10.7% |
| Cc1ccc(C2(C)NC(=O)N(CC(=O)NC(=O)NCCC(C)C)C2=O)cc1 (stereo not drawn) | 8.18% |
| CCOC(=O)N1CCN(C(=O)c2oc3ccc(S(=O)(=O)N4CC(C)CC(C)C4)cc3c2C)CC1 (stereo not drawn) | 0.354% |

| Structure (SMILES) | hERG current change (%, negative = inhibition) at 1uM |
| --- | --- |
| COc1cccc(/C=C/c2nc3c(cnn3-c3ccccc3)c(=O)[nH]2)c1 | 9.85% |
| O=C(Nc1cccnc1Cl)c1cc([N+](=O)[O-])ccc1Cl | 11.9% |
| Cc1ccc(C(=O)NC2CC(C)(C)NC(C)(C)C2)cc1Cl | 12.4% |
| CCOc1ccc(NC(=O)CSc2nc(C3CC3)nc3ccccc23)cc1 | 16.7% |
| Cc1cc(NC(=O)COc2ccccc2C#N)no1 | 10.3% |
| Cc1cccc(N(C)C(=O)C2CCCN2S(=O)(=O)c2cccc3nsnc23)c1 (stereo not drawn) | 15% |
| COC(=O)c1cn(C(=O)c2ccccc2Cl)c2ccccc12 | -19.9% |
| Cc1ccc(O)c(C(=O)/C=C/c2ccc3c(c2)OCCCO3)c1 | -2.95% |
| Cc1ccc2c(cnn2C(=O)CCCC(=O)NCc2cccc(F)c2)c1 | 13.1% |
| CC(C)c1[nH]nc2c1C(c1ccco1)C(C#N)=C(N)O2 (stereo not drawn) | 9.51% |
| S=C(Nc1cc(Cl)cc(Cl)c1)NC1CCN(Cc2ccccc2)CC1 | 5.58% |
| O=C(CC(c1ccccc1)c1ccccc1O)NCc1ccco1 (stereo not drawn) | 3.21% |
| CN1N=C(C(=O)N2CCCC(Nc3ccc(F)c(F)c3)C2)CCC1=O (stereo not drawn) | 17.7% |
| CN1CN(c2cccc([N+](=O)[O-])c2)CN=C1N[N+](=O)[O-] | 6.81% |
| CC1=C[C@H]2Cc3cc(C)cc(C)c3S(=O)(=O)[C@@H]2C=C1 | 9.32% |
| CCSc1nnc(NC(=O)CSc2nc3c(c(=O)n2-c2ccccc2)SCC3)s1 | 3.43% |
| CC(=O)Nc1cccc(C(=O)Nc2cccc3ncccc23)c1 | 14.1% |
| COc1cc(/C=N/NC(=O)c2nnn(-c3nonc3N)c2C(C)C)ccc1O | 11.5% |
| O=C1CSC(c2ccccc2)N1CCc1ccccc1 (stereo not drawn) | 10.3% |
| Cc1[nH]nc(-c2ccc(O)cc2O)c1-c1ccc(Cl)cc1 | -4.13% |
| CC(=O)Nc1c(C(=O)NCc2ccccc2)nnn1Cc1ccccc1 | 7.76% |
| O=C(Cc1ccccc1)Nc1ccc(NC(=O)c2ccco2)nc1 | 14.1% |
| CC(=O)Nc1c2c(nn1-c1ccc(C)cc1C)CSC2 | 7.98% |

| Structure (SMILES) | hERG current change (%, negative = inhibition) at 1uM |
| --- | --- |
| Cc1cc(SCc2ccc(Br)cc2)nc(=O)[nH]1 | 15.7% |
| CCCNCc1cc(Br)ccc1OCC(=O)NCCc1ccccc1 | -10.7% |
| O=C(CN1C(=O)NC2(CCc3ccccc32)C1=O)c1ccc2c(c1)OCCO2 (stereo not drawn) | 7.73% |
| CC1(C)Cc2nc(NC3CCCCC3)c(C#N)cc2CO1 | 4.81% |
| COc1c(C)cc(C(=O)C2CCCN(C(=O)c3cccc(F)c3)C2)cc1C (stereo not drawn) | 4.21% |
| CC(C)CNC(=O)C(=O)Nc1ccc(N(C)C)cc1 | 9.87% |
| CC(=O)N/C(=C\c1ccc(F)cc1)C(=O)N(C)C | 11.7% |
| COC1C=CC(CNC(=O)c2cc3c(=O)n4cccc(C)c4nc3n2C)(OC)O1 (stereo not drawn) | 12.9% |
| O=[N+]([O-])c1ccc(/C=C/c2ccc3ccccc3n2)cc1 | 14.2% |
| C=C[C@@H]1c2cc(C)ccc2N(S(=O)(=O)c2ccc(C)cc2)[C@H](c2ccccc2)C1(C#N)C#N | 14.4% |
| CCCn1nc(NC(C)=O)c2cc3cccc(C)c3nc21 | 10.6% |
| Cn1c(Cc2cccc3ccccc23)nnc1SCc1ccc([N+](=O)[O-])cc1 | -1.98% |
| COc1cccc(N2CCN(C(=O)CN(C)S(=O)(=O)c3ccc4c(c3)CCC(=O)N4)CC2)c1 | -12% |
| O=C(c1ccccc1)c1c[nH]c2ccccc12 | 12.2% |
| Cc1cc(NC(=O)COc2ccc(Cl)cc2Cl)n(-c2ccccc2)n1 | 8.96% |
| O=S(=O)(CCc1nc2ccccc2s1)c1ccc2ccccc2c1 | 6.61% |
| COc1ccc2c(c1)CCc1c-2n[nH]c1C(=O)NCCC(C)C | 11% |
| COc1ccc(NS(=O)(=O)c2cc(NC(=O)Cc3c(F)cccc3Cl)ccc2OC)cc1 | 16.3% |
| CCc1nnc(NC(=O)CSc2nccn2-c2cc(C)cc(C)c2)s1 | 6.45% |
| Cc1cc(C)cc(NC(=O)C2C3C=CC4(O3)C2C(=O)N(CCN2CCCCC2)C4C(=O)NC2CCCCC2)c1 (stereo not drawn) | -6.81% |
| COCCn1c(N)c(C#N)c2nc3ccccc3nc21 | 2.51% |
| O=C(CSc1nnc(Cn2c(=O)sc3ccccc32)n1-c1ccccc1)N1CCCC1 | 2.08% |
| O=C(CNC(=O)C1COc2ccccc2O1)N/N=C\c1ccc(Br)cc1 (stereo not drawn) | -7.2% |

| Structure (SMILES) | hERG current change (%, negative = inhibition) at 1uM |
| --- | --- |
| COc1ccc(NC2CCCN(C(=O)CN3CCOC3=O)C2)cc1 (stereo not drawn) | 11.1% |
| Cc1ccc(C(=O)NCC(=O)N/N=C/c2cccs2)cc1C | 9.31% |
| COCC(=O)N(Cc1cc2cc(OC)ccc2[nH]c1=O)c1ccccc1 | 11% |
| O=C(CCc1nnc2ccc(N3CCCCC3)nn12)NCc1ccco1 | 10% |
| CC(C)NC(=S)N/N=C/c1ccccc1[N+](=O)[O-] | 7.35% |
| S=C(NCCc1ccc(Cl)cc1)NC1CC1 | 10% |
| CCN(CC(=O)Nc1c(F)cccc1F)C(=O)CNC(=O)c1cccc(C)c1 | 14.7% |
| c1ccc2c(-c3cncc4ccccc34)cncc2c1 | 2.76% |
| CCN(CC)C(=O)Oc1ccnc2cc(Cl)ccc12 | 5.38% |
| CC1CC(C)(C)CC2(C1)NC(=O)N(CC(=O)Nc1cc([N+](=O)[O-])ccc1F)C2=O (stereo not drawn) | 10.9% |
| CC(C)Cn1c(N)c(C(=O)CSc2n[nH]c(N)n2)c(=O)n(C)c1=O | 12.3% |
| COCCCNC(=O)c1cc2c(=O)n3cccc(C)c3nc2s1 | 7.68% |
| COc1ccc([N+](=O)[O-])cc1NC(=O)C(C)OC(=O)C1CCCC1 (stereo not drawn) | 5.34% |
| Cl.OCCN1CCN(CC(O)COc2ccc3c(c2)OCO3)CC1 (stereo not drawn) | 12.3% |
| CC(CNS(=O)(=O)c1ccccc1)Sc1ncccn1 (stereo not drawn) | 8.74% |
| CN(Cc1ccccc1)S(=O)(=O)c1ccc2[nH]c(=O)oc2c1 | 13.3% |
| CN(C)S(=O)(=O)c1cc(NC(=O)CN2CCN(c3ccc(O)cc3)CC2)ccc1Cl | 5.17% |
| Nc1nc(Nc2ccccc2)nc(NCc2ccco2)c1[N+](=O)[O-] | 0.925% |
| Cc1[nH]c2ccccc2c1/C=N\NC(=O)Cn1nnc(-c2ccccc2)n1 | 8.74% |
| NC(=S)N/N=C/c1ccccc1OCCSc1ccc(Cl)cc1 | 10.4% |
| CC(C)CN1CCC(CNC(=O)CCc2nnc(Cc3c[nH]c4ccccc34)o2)CC1 | 12% |
